From the BET-seq Pho4 binding data (Le et al. 2018)
The other results are listed elsewhere or left out. These are noisy estimates, calculated here from bound and input reads.

biological target: T1, Pho4 (S. cerevisiae) (UniProt P07270); assay: relative binding free energy (BET-seq); higher = weaker binding; details: reference: library average
T1 sequence: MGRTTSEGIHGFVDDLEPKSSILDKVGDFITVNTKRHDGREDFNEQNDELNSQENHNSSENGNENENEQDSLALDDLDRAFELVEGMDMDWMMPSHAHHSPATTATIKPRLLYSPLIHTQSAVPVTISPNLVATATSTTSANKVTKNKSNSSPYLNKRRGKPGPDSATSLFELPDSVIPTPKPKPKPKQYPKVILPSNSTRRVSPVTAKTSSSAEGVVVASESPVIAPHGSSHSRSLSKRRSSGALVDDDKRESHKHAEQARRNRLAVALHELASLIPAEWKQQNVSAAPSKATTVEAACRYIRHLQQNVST

Row | Sequence | relative binding free energy
1 | GGCGTCACGTGTAGGT | 0.04 kcal/mol
2 | TGTGTCACGTGCTAGA | 0.01 kcal/mol
3 | GAATGCACGTGTTAGA | 0.12 kcal/mol
4 | GGGTTCACGTGCTAGA | 0.39 kcal/mol
5 | GTTCGCACGTGGTAAT | -0.16 kcal/mol
6 | ATTAACACGTGATGTT | 0.19 kcal/mol
7 | GTGGTCACGTGTGCGA | 0.09 kcal/mol
8 | AGAGTCACGTGTAGAG | 0.23 kcal/mol
9 | TTCGTCACGTGGTAAT | 0.1 kcal/mol
10 | TTTGTCACGTGAGTCT | 0.29 kcal/mol
11 | TAGTTCACGTGATAGG | 0.43 kcal/mol
12 | CTGGTCACGTGGTGAT | -0.03 kcal/mol
13 | TCGGGCACGTGGGTAT | -0.14 kcal/mol
14 | AGCGACACGTGTGGGT | 0.06 kcal/mol
15 | TAATTCACGTGTCATG | 0.38 kcal/mol
16 | TGGCCCACGTGTTTTG | -0.06 kcal/mol
17 | CCGTACACGTGTTGGG | 0.12 kcal/mol
18 | TAGTTCACGTGGATAG | 0.34 kcal/mol
19 | GCTGTCACGTGTCTTT | 0.13 kcal/mol
20 | CTGGGCACGTGGGTCT | -0.21 kcal/mol
21 | CGAGGCACGTGGGTAG | -0.19 kcal/mol
22 | TATCTCACGTGAGTGG | 0.27 kcal/mol
23 | TTCGGCACGTGGGGAC | -0.24 kcal/mol
24 | GTGAACACGTGGCGGC | 0.06 kcal/mol
25 | TGCTTCACGTGTCGTG | 0.29 kcal/mol

Row | Sequence | relative binding free energy
26 | TAAGCCACGTGGTAGG | -0.04 kcal/mol
27 | GGTGTCACGTGATGTT | 0.24 kcal/mol
28 | TACTGCACGTGGCTGG | 0.01 kcal/mol
29 | TGGGACACGTGCATGG | 0.08 kcal/mol
30 | AGCGTCACGTGCGTGT | -0.07 kcal/mol
31 | TGATGCACGTGGAGTC | 0.08 kcal/mol
32 | GGATGCACGTGGGCCT | -0.1 kcal/mol
33 | AGGTACACGTGGTCGT | -0.09 kcal/mol
34 | GTGTCCACGTGCGGCG | 0.12 kcal/mol
35 | GCGTTCACGTGTGTGT | 0.29 kcal/mol
36 | CATGGCACGTGAGGTA | 0.09 kcal/mol
37 | GGGTACACGTGGGTCT | -0.06 kcal/mol
38 | AGCCTCACGTGGGGTG | -0.1 kcal/mol
39 | GTTGACACGTGAGCAG | 0.21 kcal/mol
40 | TGGTACACGTGCATAG | 0.16 kcal/mol
41 | CATTGCACGTGGGTAT | -0.16 kcal/mol
42 | TGACACACGTGTTAGT | 0.02 kcal/mol
43 | ATTTGCACGTGGAGCG | -0.12 kcal/mol
44 | TGCGCCACGTGGGTTT | -0.25 kcal/mol
45 | GTCGGCACGTGTTGTC | 0.08 kcal/mol
46 | TTCTGCACGTGATATT | 0.05 kcal/mol
47 | GCTGTCACGTGATTTT | 0.16 kcal/mol
48 | TTGGCCACGTGATCGG | -0.03 kcal/mol
49 | GTGCGCACGTGGGCAG | -0.39 kcal/mol
50 | TGGGGCACGTGGACTT | -0.08 kcal/mol

Row | Sequence | relative binding free energy
51 | TATTGCACGTGTTTAC | -0.01 kcal/mol
52 | TGGGTCACGTGATCTA | 0.25 kcal/mol
53 | TATTTCACGTGGTTTC | 0.21 kcal/mol
54 | GGTGGCACGTGAGTAC | 0.11 kcal/mol
55 | TTTAGCACGTGTACTT | -0.01 kcal/mol
56 | ACGTTCACGTGTTAAG | 0.24 kcal/mol
57 | GAAATCACGTGTTAGG | 0.23 kcal/mol
58 | GTGCTCACGTGATTGG | 0.28 kcal/mol
59 | TCGAGCACGTGTTTGT | -0.08 kcal/mol
60 | AATGCCACGTGGGTTT | -0.08 kcal/mol
61 | TGAGGCACGTGGAGCG | -0.15 kcal/mol
62 | ACAATCACGTGGGGGG | 0.03 kcal/mol
63 | TTCCTCACGTGGTGTG | 0.02 kcal/mol
64 | GATTTCACGTGGAGGT | 0.34 kcal/mol
65 | CGTGGCACGTGGATAA | -0.14 kcal/mol
66 | AATGACACGTGTTCGT | -0.05 kcal/mol
67 | TGTGGCACGTGTGCGC | -0.17 kcal/mol
68 | ATGGCCACGTGCGGTT | -0.1 kcal/mol
69 | CTGTTCACGTGTGGTA | 0.32 kcal/mol
70 | AGCGACACGTGTTGTT | -0.03 kcal/mol
71 | ATTGACACGTGAGTTG | 0.32 kcal/mol
72 | AACTTCACGTGGGGGA | 0.04 kcal/mol
73 | TGTTGCACGTGGGAGG | -0.11 kcal/mol
74 | AATTACACGTGGGCTG | 0 kcal/mol
75 | TGGGACACGTGTTAAA | 0.1 kcal/mol

Row | Sequence | relative binding free energy
76 | AGGGACACGTGATGGT | 0.15 kcal/mol
77 | TCTCGCACGTGGAGGT | 0.04 kcal/mol
78 | TAAGGCACGTGGGATT | 0 kcal/mol
79 | CGTAGCACGTGAGCGT | 0.18 kcal/mol
80 | TTTGGCACGTGAGGTA | 0.04 kcal/mol
81 | AAGTGCACGTGAGAGA | 0.35 kcal/mol
82 | GTATCCACGTGGGTGT | -0.07 kcal/mol
83 | TCACGCACGTGGGGAG | -0.1 kcal/mol
84 | GGTGCCACGTGTTTGG | 0.03 kcal/mol
85 | GTCAGCACGTGGTGGA | -0.11 kcal/mol
86 | GTGTTCACGTGGGACT | 0.23 kcal/mol
87 | GGGGGCACGTGGATCT | 0.07 kcal/mol
88 | GGAGACACGTGAGAGG | 0.26 kcal/mol
89 | GTGAGCACGTGGAGAG | -0.05 kcal/mol
90 | GCGTTCACGTGCGGGG | 0.13 kcal/mol
91 | TTTGTCACGTGGGTTA | 0.1 kcal/mol
92 | TGGGTCACGTGGAGCC | 0.05 kcal/mol
93 | GGGCTCACGTGGTGCT | 0.16 kcal/mol
94 | CGAATCACGTGGTGTG | 0.19 kcal/mol
95 | ATGAACACGTGATAGG | 0.1 kcal/mol
96 | CTGTTCACGTGTGAAG | 0.27 kcal/mol
97 | ATATACACGTGGGTAG | -0.13 kcal/mol
98 | TGTTGCACGTGTAGAT | 0.19 kcal/mol
99 | GATGTCACGTGTTTGT | 0.18 kcal/mol
100 | AATCTCACGTGTTTTG | 0.19 kcal/mol

Row | Sequence | relative binding free energy
101 | ACAGTCACGTGTGGTA | 0.07 kcal/mol
102 | ATTATCACGTGGAATT | 0.2 kcal/mol
103 | TATGGCACGTGGCGGC | -0.14 kcal/mol
104 | AGGTTCACGTGTAGCT | 0.32 kcal/mol
105 | GGTTTCACGTGCGAGA | 0.36 kcal/mol
106 | AAGGACACGTGTTTGA | -0.05 kcal/mol
107 | TTTTGCACGTGAGCGG | 0.15 kcal/mol
108 | CGTGTCACGTGGATGG | 0.09 kcal/mol
109 | AAGTGCACGTGTTTAT | -0.11 kcal/mol
110 | TATTGCACGTGTGCGC | 0.07 kcal/mol
111 | TTCGGCACGTGTGGGG | 0.04 kcal/mol
112 | ACGGGCACGTGTTGTT | -0.05 kcal/mol
113 | ATTTTCACGTGATGCT | 0.29 kcal/mol
114 | CTGGACACGTGACGGG | 0.22 kcal/mol
115 | CTCGTCACGTGTTTTT | 0.01 kcal/mol
116 | AAGGACACGTGTGCTG | 0.15 kcal/mol
117 | AGAGGCACGTGGTAAG | -0.12 kcal/mol
118 | GGGTGCACGTGCATGG | -0.08 kcal/mol
119 | GAGGTCACGTGAGTAG | 0.29 kcal/mol
120 | GAGTTCACGTGGGGAA | 0.21 kcal/mol
121 | GATTTCACGTGTAGTG | 0.09 kcal/mol
122 | TTAGACACGTGGAAGG | 0.16 kcal/mol
123 | TGAGACACGTGTGATG | 0.18 kcal/mol
124 | TCATGCACGTGGTATG | -0.13 kcal/mol
125 | GAGGTCACGTGTTATA | 0.08 kcal/mol

Row | Sequence | relative binding free energy
126 | AGTGACACGTGACGTT | 0.05 kcal/mol
127 | GTTGACACGTGAGGGA | 0.25 kcal/mol
128 | GTGGACACGTGGCTAA | 0.06 kcal/mol
129 | GTGGACACGTGAGTGA | 0.18 kcal/mol
130 | GCTATCACGTGCGGGT | 0.15 kcal/mol
131 | TGCTTCACGTGGTCTG | 0.11 kcal/mol
132 | AGGGGCACGTGGTGTT | -0.18 kcal/mol
133 | AGGCTCACGTGTTGTA | 0.27 kcal/mol
134 | ATGAGCACGTGGGGAT | -0.18 kcal/mol
135 | TGTTGCACGTGATGCG | 0.01 kcal/mol
136 | TACGACACGTGAGTTG | 0.29 kcal/mol
137 | GCCGTCACGTGTGTGA | 0.24 kcal/mol
138 | GGATGCACGTGATTGA | 0.23 kcal/mol
139 | ATGTACACGTGGAAGG | 0.08 kcal/mol
140 | CTGTGCACGTGGTTGC | -0.02 kcal/mol
141 | TAGCGCACGTGTATTT | -0.07 kcal/mol
142 | AGGCTCACGTGGTAGT | 0.25 kcal/mol
143 | TAGCGCACGTGGGAGA | -0.12 kcal/mol
144 | CTTGGCACGTGATATG | 0.01 kcal/mol
145 | CATGACACGTGCGGGT | 0.05 kcal/mol
146 | ATTCGCACGTGTGCGG | 0.12 kcal/mol
